The list shows a part of the results.
target: T1, OsWOX13 (Oryza sativa, UniProt Q5QMM3 1-267); assay: protein-binding microarray (RPBM); PBS, 2% BSA, 51.3 ng/ul salmon testes DNA, 50 uM zinc acetate, 200 nM TF, 25 C, 1 h; high values mean tight binding; conditions: protein: recombinant; tags: N-terminal polyhistidine and DsRed monomer fusion (pET32a); label: CyDye5-dUTP incorporated in the synthesized complementary strand; 3' TTTTT single-stranded linker to array surface; dsDNA, one strand shown
T1 sequence: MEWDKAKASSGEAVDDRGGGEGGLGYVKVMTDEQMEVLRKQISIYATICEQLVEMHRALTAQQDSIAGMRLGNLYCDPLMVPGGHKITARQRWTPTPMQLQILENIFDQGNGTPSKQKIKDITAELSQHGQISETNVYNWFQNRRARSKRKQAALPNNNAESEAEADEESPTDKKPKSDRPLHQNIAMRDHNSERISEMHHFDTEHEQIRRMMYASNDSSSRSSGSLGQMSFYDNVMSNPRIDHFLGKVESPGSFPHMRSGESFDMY
In short: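 Binding signal is reported as fluorescence intensity per feature (arbitrary units) from an Axon 4000B scanner. Incubation used 200 nM of each Ni–NTA-purified, N-terminally polyhistidine- and DsRed-fused transcription factor from E. coli BL21-CodonPlus on a double-stranded custom Agilent array for 1 h at 25 °C, with 50 µM zinc acetate in the buffer, followed by washing.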

Q: With “ACTAAATTTATATCGAGGGGTGAACATATAGTGAAAATAACGGAGTCACCTAGTGCAG” as the sequence, how does the binding signal read?
A: 5540 fluorescence intensity (a.u.)

Q: “TTTAAATGTGATGATTTGTTAGTGGATGATGATGTATCATCGGAGTCACCTAGTGCAG” was tested. Which binding signal did it give?
A: 24000 fluorescence intensity (a.u.)

Q: “TTATAATTGGAAAATAAATGAAGGGTTATAATTAAATGAACGGAGTCACCTAGTGCAG” was tested. Which binding signal did it give?
A: 12000 fluorescence intensity (a.u.)

Q: Which binding signal does the source give for “TATTAATTATGCTCAATAGATTCGTCCCGTGAATTAGTCCCGGAGTCACCTAGTGCAG” here?
A: 23900 fluorescence intensity (a.u.)

Q: Which binding signal does the source give for “AAAGATAATAATCATAAATGGAAAGAGTGGAAAGAGAAGACGGAGTCACCTAGTGCAG” here?
A: 3320 fluorescence intensity (a.u.)

Q: With “TATCCCTAATTATATAGGTTAGTCTATGTTTTATTCTCAACGGAGTCACCTAGTGCAG” as the sequence, how does the binding signal read?
A: 9650 fluorescence intensity (a.u.)

Q: “CATGATTAATCAAGTTAATTATTATACACTAAATATTGGACGGAGTCACCTAGTGCAG” was tested. Which binding signal did it give?
A: 59600 fluorescence intensity (a.u.)

Q: How did the binding signal turn out when “GCGAAGATTGTAAACACAAACTTAGATGGGTTCATTAGTTCGGAGTCACCTAGTGCAG” was run?
A: 4960 fluorescence intensity (a.u.)

Q: With “GAACTTCCAAATTAGTTTCTAATGACACACAAATCGAGACCGGAGTCACCTAGTGCAG” as the sequence, how does the binding signal read?
A: 4800 fluorescence intensity (a.u.)

Q: Which binding signal does the source give for “AAAATAAATTGAAACCAACTCTTAAATCCGATCTATAGTACGGAGTCACCTAGTGCAG” here?
A: 13400 fluorescence intensity (a.u.)

Q: Which binding signal does the source give for “AACTAATCAGGGCTTTAGTTTATTTAAGTTTGAGATGGGGCGGAGTCACCTAGTGCAG” here?
A: 3830 fluorescence intensity (a.u.)

Q: “GAGCAAAACAATAATTAAATATATTTTGATAATAAATTTGCGGAGTCACCTAGTGCAG” was tested. Which binding signal did it give?
A: 3560 fluorescence intensity (a.u.)

Q: Which binding signal does the source give for “CTTAATGAAATAAAGCATGGGGCTAAGCCTGATGTTGTTGCGGAGTCACCTAGTGCAG” here?
A: 3430 fluorescence intensity (a.u.)

Q: “AATAATTGACTGGTAGTGCATGTACTCCTCTTCCTATACTCGGAGTCACCTAGTGCAG” was tested. Which binding signal did it give?
A: 48300 fluorescence intensity (a.u.)

Q: With “GTCGAATTTAATTGGTCTTCGAGTTTCGCCGGTATTTTCTCGGAGTCACCTAGTGCAG” as the sequence, how does the binding signal read?
A: 18000 fluorescence intensity (a.u.)

Q: “GGCTAATCATGGCCTAATTAGGCTCAAAAGATTCGTCTCGCGGAGTCACCTAGTGCAG” was tested. Which binding signal did it give?
A: 33200 fluorescence intensity (a.u.)

Q: Which binding signal does the source give for “TGATACAATCATCTCTATGATTGCCTCTAGGGCATATCACCGGAGTCACCTAGTGCAG” here?
A: 40400 fluorescence intensity (a.u.)

Q: With “TTCAATGACAAAATCAATTAATTATCACTAGGATTTTGAACGGAGTCACCTAGTGCAG” as the sequence, how does the binding signal read?
A: 42600 fluorescence intensity (a.u.)

Q: How did the binding signal turn out when “GAATTAATTAAAATTCGGAAAGAAATTGGCAAACACTAAACGGAGTCACCTAGTGCAG” was run?
A: 15600 fluorescence intensity (a.u.)

Q: How did the binding signal turn out when “GAGTAAACTGAAAGAAACAGATAATTTATTAAAGTAGCTTCGGAGTCACCTAGTGCAG” was run?
A: 21900 fluorescence intensity (a.u.)

Q: How did the binding signal turn out when “CATGCCTTGATTATTGTTTATCCCTTATTCCTTCGTAACCCGGAGTCACCTAGTGCAG” was run?
A: 16800 fluorescence intensity (a.u.)

Q: For “TATGATTGATAGATTCTTAGTATTTGGGTGGCTTTTCGTACGGAGTCACCTAGTGCAG”, which binding signal is on record?
A: 50400 fluorescence intensity (a.u.)

Q: With “GAATAATCAATTGCCGAATACGTTCTGGACATGGATATTGCGGAGTCACCTAGTGCAG” as the sequence, how does the binding signal read?
A: 6880 fluorescence intensity (a.u.)

Q: How did the binding signal turn out when “CGCCAAATTGCAATGGAGGCTAATTCCCTTCCAGTACTACCGGAGTCACCTAGTGCAG” was run?
A: 4440 fluorescence intensity (a.u.)

Q: Which binding signal does the source give for “CACACGTTGATTAATGCGAGGAATTTCTTTTGTTTACAACCGGAGTCACCTAGTGCAG” here?
A: 17300 fluorescence intensity (a.u.)

Q: How did the binding signal turn out when “ATCCATAATTAGCCATAAGTGCTACAGTAACCCACATATGCGGAGTCACCTAGTGCAG” was run?
A: 13300 fluorescence intensity (a.u.)

Q: For “CTGATTACTGTGCGCGAGACTACGTTTCAGTTGTGCTTGTCGGAGTCACCTAGTGCAG”, which binding signal is on record?
A: 8560 fluorescence intensity (a.u.)

Q: How did the binding signal turn out when “GTATGTTATTATATCAATTAGATTTATGCTAGCACTGTCGCGGAGTCACCTAGTGCAG” was run?
A: 15200 fluorescence intensity (a.u.)

Q: How did the binding signal turn out when “CTCTAAAATGGATGATTTGTGCACAGTGAATAGGTACTGGCGGAGTCACCTAGTGCAG” was run?
A: 13600 fluorescence intensity (a.u.)

Q: How did the binding signal turn out when “TTAATTACTTTGCAAGACATTTCTTTATCTGAATACAGGTCGGAGTCACCTAGTGCAG” was run?
A: 3910 fluorescence intensity (a.u.)

Q: How did the binding signal turn out when “GCATAATGCATTAATTTATATATATGAATAGTAGTCGCTCCGGAGTCACCTAGTGCAG” was run?
A: 18300 fluorescence intensity (a.u.)

Q: Which binding signal does the source give for “CCACCACCACGTAATTAACGCTGCCTCGCTGTTAATGTTCCGGAGTCACCTAGTGCAG” here?
A: 3500 fluorescence intensity (a.u.)

Q: “ACAACAACAGCTTTGATCAATCAATCCATCAACTCAGGTTCGGAGTCACCTAGTGCAG” was tested. Which binding signal did it give?
A: 11400 fluorescence intensity (a.u.)

Q: For “TAAGCTAATTTGACCGCTGAAAGTGATGGAAAGCAAGCAACGGAGTCACCTAGTGCAG”, which binding signal is on record?
A: 4480 fluorescence intensity (a.u.)

Q: With “TTTGGATTGAGGGACGATTTTGTAATTCGATGACAAGTTGCGGAGTCACCTAGTGCAG” as the sequence, how does the binding signal read?
A: 10400 fluorescence intensity (a.u.)

Q: How did the binding signal turn out when “GACCAAGAAATAATTATTATCATCTTGTAGTTTGGATCATCGGAGTCACCTAGTGCAG” was run?
A: 4500 fluorescence intensity (a.u.)

Q: How did the binding signal turn out when “CTCATTCAATTAGCGCCGAAGTAATAGTCAGAATTTCCCACGGAGTCACCTAGTGCAG” was run?
A: 16000 fluorescence intensity (a.u.)

Q: “CCTACAGTTGAGTGATTAACTGTACGATTATAGTTTTGTTCGGAGTCACCTAGTGCAG” was tested. Which binding signal did it give?
A: 5040 fluorescence intensity (a.u.)

Q: Which binding signal does the source give for “TATCACTACTATAGGATTGATTTTCCTGAACGTCACCCCACGGAGTCACCTAGTGCAG” here?
A: 4510 fluorescence intensity (a.u.)

Q: For “ACTCAACCAGATTGATAATAGTCAACTCGTCACATTAGTTCGGAGTCACCTAGTGCAG”, which binding signal is on record?
A: 15600 fluorescence intensity (a.u.)

Q: How did the binding signal turn out when “TGGAGTAATTAGAAATGCATATAAATTGAACCGACAAATACGGAGTCACCTAGTGCAG” was run?
A: 15100 fluorescence intensity (a.u.)

Q: How did the binding signal turn out when “ATTAAGCCTAATTAATTCGTCATTAACAAATATTTATTACCGGAGTCACCTAGTGCAG” was run?
A: 12400 fluorescence intensity (a.u.)

Q: How did the binding signal turn out when “TTGTATGGCTTGATTGCAACCAAGAAACTCTTCTTAGCTTCGGAGTCACCTAGTGCAG” was run?
A: 9080 fluorescence intensity (a.u.)

Q: “TTTGACCTTTGTTCTGATTGCTACAACGAGGGAAAGTTTACGGAGTCACCTAGTGCAG” was tested. Which binding signal did it give?
A: 4690 fluorescence intensity (a.u.)

Q: Which binding signal does the source give for “TTCTTCTAGAGGAGGAGGAGGCGGCGGGGCGGCGGGCGAGCGGAGTCACCTAGTGCAG” here?
A: 4480 fluorescence intensity (a.u.)

Q: With “CGAGCAATCACCTCCACTAATCACCACCACCCCTATCTTGCGGAGTCACCTAGTGCAG” as the sequence, how does the binding signal read?
A: 15200 fluorescence intensity (a.u.)

Q: “TTCATAAATTATCTTTTGTTTGCAAATATGCCGTTTCGCTCGGAGTCACCTAGTGCAG” was tested. Which binding signal did it give?
A: 20600 fluorescence intensity (a.u.)

Q: With “TGAAATGTGAACAATCAAAATAAACATGATCTCATTGTCCCGGAGTCACCTAGTGCAG” as the sequence, how does the binding signal read?
A: 10400 fluorescence intensity (a.u.)

Q: With “TTCTGATTAAGGGGTACAAATTAGATTCGGACTACTTTAACGGAGTCACCTAGTGCAG” as the sequence, how does the binding signal read?
A: 13500 fluorescence intensity (a.u.)

Q: “ACATTTTCCTTTTCCTTTTCCTTCCTTTTCTTTTCCTTTTCGGAGTCACCTAGTGCAG” was tested. Which binding signal did it give?
A: 3150 fluorescence intensity (a.u.)

Q: For “TACAACTACTGCTGATTGCTTCAGACTGATCCAAGAAAGGCGGAGTCACCTAGTGCAG”, which binding signal is on record?
A: 12000 fluorescence intensity (a.u.)

Q: Which binding signal does the source give for “CATGATTTACCTAAATCTCGGTTGGAATAATTTCACCGGACGGAGTCACCTAGTGCAG” here?
A: 33900 fluorescence intensity (a.u.)

Q: How did the binding signal turn out when “AGGATAATTGTATAAGTATTTGTCAACTTTGTAATTCTCTCGGAGTCACCTAGTGCAG” was run?
A: 12100 fluorescence intensity (a.u.)

Q: With “TATTGATTAAACATAATGGTCTCACAATATTTTAGTTACCCGGAGTCACCTAGTGCAG” as the sequence, how does the binding signal read?
A: 27300 fluorescence intensity (a.u.)

Reference: article PMC7819943, “Rice protein-binding microarrays: a tool to detect cis-acting elements near promoter regions in rice”
